What all share (conditions): 20 mM HEPES pH 7.9, 100 mM NaCl, 1 mM DTT, 0.2 mg/mL BSA, 0.02% Triton X-100, 2% milk, 0.4 mg/mL salmon testes DNA; 1 h; temperature not stated; high values mean tight binding; double strand, one strand shown; sequences stand for … in GCCTAGCAC…GTGCTAGGTCTTGATTCGCTTGACGCTGCTG
The target in test [1] is PU.1 (IVT) (UniProt P17947). The test is described as follows: protein-binding microarray (PBM).
Test [2] has as its target PU.1 (endogenous, THP-1 nuclear extract) (UniProt P17947). Description: nuclear extract protein-binding microarray (nextPBM).
Test [3] addresses T1, FLI1 (endogenous, THP-1 nuclear extract) (UniProt Q01543).
T1 sequence: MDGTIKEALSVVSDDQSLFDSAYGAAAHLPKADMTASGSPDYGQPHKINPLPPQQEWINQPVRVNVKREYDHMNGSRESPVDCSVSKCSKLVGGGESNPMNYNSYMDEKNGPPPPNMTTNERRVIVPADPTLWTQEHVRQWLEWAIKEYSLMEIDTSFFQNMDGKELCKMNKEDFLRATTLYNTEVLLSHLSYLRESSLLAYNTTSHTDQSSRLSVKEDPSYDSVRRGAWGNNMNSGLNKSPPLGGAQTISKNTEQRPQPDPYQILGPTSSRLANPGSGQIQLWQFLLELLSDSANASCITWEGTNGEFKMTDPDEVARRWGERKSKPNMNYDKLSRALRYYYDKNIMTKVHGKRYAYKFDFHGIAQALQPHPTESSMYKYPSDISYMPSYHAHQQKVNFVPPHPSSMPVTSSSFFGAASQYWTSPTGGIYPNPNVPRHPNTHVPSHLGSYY
The test is described as above.

The list shows a part of the results. For part of these data: At the low end of the ranking, values are background and their order means little. For part of these data: The protein was read in a cell extract, so binding may be indirect.

Take CTAAGGAGGAAGTAAAAGCA: the binding signal in test [1] stood at 4.84 z-score; in test [2], 5.38 z-score; in test [3], 2.65 z-score.
GAGATGAGGAAGTGGGGACA: the binding signal in test [1] turned out to be 4.82 z-score; in test [2], 5.49 z-score; in test [3], 2.09 z-score.
Regarding TAGGAGGGGAACTGAATCCA, the binding signal in test [1] is 1.64 z-score; in test [2] it was 1.79 z-score; in test [3], 0.244 z-score.
With GGAAAAGGGAAGTGGAATCA, the binding signal was found to be 6.56 z-score in test [1], 6.52 z-score in test [2] and 2.64 z-score in test [3].
On the same counts, the results for AGAAAGAGGAAGGGTTTGAA are 3.82 z-score, 4.23 z-score and 1.61 z-score.
On the same counts, the results for TGAAGAGGGAAGTGAGAGAG are 3.37 z-score, 3.47 z-score and 1.66 z-score.
In the case of ACGCAGGGGAAGTGGCTCCC, the binding signal in test [1] was 2.95 z-score; in test [2] it was 3.03 z-score; in test [3] it was 1.88 z-score.
GAGAAGAGGAAGTGCCACAC: the binding signal in test [1] turned out to be 6.45 z-score; in test [2], 6.72 z-score; in test [3], 3.23 z-score.
In the same order, the values of GCAGAGAGGAAGTGGGAGGG are 3.59 z-score, 4.34 z-score and 2.73 z-score.
With AAAATGAGGAAGTGGCTTTG, the values for the binding signal in test [1], in test [2] and in test [3] were 8.37 z-score, 7.46 z-score and 3.85 z-score, respectively.
Consider GATAAGAGAAAGTCCTCTGT, for which the binding signal was -0.236 z-score in test [1], -0.198 z-score in test [2] and -0.591 z-score in test [3].
For GGGAACAGGAAGTGAAAATG, the binding signal in test [1] was determined as 5.3 z-score; in test [2], 5.79 z-score; in test [3], 5.1 z-score.
On the same counts, the results for TGATAAGGGAAGTGAAGCTC are 3.39 z-score, 3.7 z-score and 1.79 z-score.
On the same counts, the results for AATAAGAGGAAGTAACGTGC are 7.68 z-score, 7.23 z-score and 3.61 z-score.
For the sequence GAAAAGGAGAAGTGGTCCCA, the binding signal in test [1] was 5.14 z-score; in test [2], 5.96 z-score; in test [3], 2.15 z-score.
On to AAATAAAGGAACTGAATCTA, for which the binding signal turned out to be 3.04 z-score in test [1], 2.85 z-score in test [2] and 1.28 z-score in test [3].
In the same order, the values of GAAAAGAGGAAGTCCGGTGA are 8.09 z-score, 7.21 z-score and 4.04 z-score.
On the same counts, the results for GAGAAAAGGAAGTGGCTCTT are 3.67 z-score, 3.6 z-score and 2.63 z-score.
On the same counts, the results for AAGAAAAGGAACTGGCTAGA are 1.87 z-score, 2 z-score and 0.918 z-score.
Turning to TAAAAGAGGAACAGCAAATC, the binding signal worked out at 3.9 z-score in test [1], 4.73 z-score in test [2] and 1.16 z-score in test [3].
Take GGAATAGGGAAGTCACTCTG: the binding signal in test [1] was 6.06 z-score; in test [2], 6.53 z-score; in test [3] it was 2.66 z-score.
In the same order, the values of TGAAAGATGAAGTGCAACCA are 0.288 z-score, 0.364 z-score and -0.676 z-score.
On the same counts, the results for TCAGGGAGGAAGTGGTGGGG are 3.65 z-score, 3.53 z-score and 2.94 z-score.
On the same counts, the results for TGGAAGAGGAAGTGGCACTG are 5.78 z-score, 6.56 z-score and 3.4 z-score.
As for GAAATTAGGAAGTACTGTGA, the binding signal was determined as 4.94 z-score in test [1], 4.5 z-score in test [2] and 1.69 z-score in test [3].
On the same counts, the results for CTGAAGAGGAACTCCAGAGA are 2.67 z-score, 2.82 z-score and 1.01 z-score.
In the same order, the values of CACAAGAGGAAGTGCCTGCG are 5.28 z-score, 5.92 z-score and 2.91 z-score.
In the same order, the values of TGAAAGAGGAAGTCCAACCA are 6.97 z-score, 6.92 z-score and 3.72 z-score.
Consider TCTTTGAGGAAGTGCTGCAG, for which the values for the binding signal in test [1], in test [2] and in test [3] were 5.19 z-score, 5.58 z-score and 2.36 z-score, respectively.
On the same counts, the results for ATTTAAAGGAAGTGAAAATT are 4.13 z-score, 3.3 z-score and 2.56 z-score.
On the same counts, the results for GAAAAGAGGAAGTCAAATTC are 8.31 z-score, 7.1 z-score and 4.2 z-score.
On the same counts, the results for GCTTTGGGGAAGTGGAAATA are 4.3 z-score, 4.56 z-score and 2.25 z-score.
As to GGGCTGAGGAAGTGGAAGGG, the binding signal in test [1] came to 2.47 z-score; in test [2] it was 2.55 z-score; in test [3] it was 2.17 z-score.
On the same counts, the results for CAAAAAGGGAAGTGGGTTGA are 7.02 z-score, 6.78 z-score and 3.08 z-score.
On the same counts, the results for GCGAAGAGGAAGTTGCGCAG are 6.26 z-score, 6.64 z-score and 3.25 z-score.
As to AATAAGAGGAAGTGCCTGGA, the figures for the binding signal in test [1], in test [2] and in test [3] were 7.02 z-score, 6.98 z-score and 3.48 z-score, respectively.
On the same counts, the results for CTGGAAAGGAAGTGCCCCCA are 1.9 z-score, 1.98 z-score and 2.47 z-score.
In the same order, the values of CATTTGGGGAAGTGAAAAGA are 5.54 z-score, 5.89 z-score and 2.13 z-score.
Turning to AAAATGAGGAAGTCAACAGC, the values for the binding signal in test [1], in test [2] and in test [3] were 7.67 z-score, 7.31 z-score and 3.1 z-score, respectively.
On the same counts, the results for CTAAAGAGGAACTGTCTGAA are 4.65 z-score, 5.01 z-score and 1.68 z-score.
On the same counts, the results for TAAATGAGGAAGTGTAGGGA are 7.59 z-score, 7.45 z-score and 3.93 z-score.
On the same counts, the results for GAGGGGAGGAAGTGCCATGG are 3.53 z-score, 3.11 z-score and 2.61 z-score.
Consider AAAAACAGGAAGTGAACCAG, for which the binding signal is 7.91 z-score in test [1], 7.18 z-score in test [2] and 5.12 z-score in test [3].
In the same order, the values of GAAATGAGGAAATGAATGGG are 4.97 z-score, 5.14 z-score and 2.31 z-score.
Take GAGAAGGGGAAGTGACCTTA: the binding signal was determined as 6.07 z-score in test [1], 6.62 z-score in test [2] and 3.41 z-score in test [3].
In the same order, the values of CTAAAAAGGAAGTGTCTATA are 3.85 z-score, 3.42 z-score and 2.59 z-score.
On the same counts, the results for TGAAAGAGGAAGTGCAACCC are 7.18 z-score, 7.2 z-score and 3.72 z-score.
On the same counts, the results for GAAAACAGGAAGTCCCATAA are 7.36 z-score, 7.26 z-score and 4.7 z-score.
Take GTAAAAGGGAAGTGCTACAG: the binding signal in test [1] came to 5.11 z-score; in test [2], 5.9 z-score; in test [3] it was 2.51 z-score.
On the same counts, the results for AGAGGAAGGAAGTGATAAAA are 2.26 z-score, 1.93 z-score and 2.09 z-score.
On the same counts, the results for GAAATGAGGAAGTTGGTGCT are 8.11 z-score, 7.37 z-score and 3.97 z-score.
AGAAGAGGGAAGTGGTTCAA: the binding signal worked out at 4.9 z-score in test [1], 4.75 z-score in test [2] and 1.9 z-score in test [3].
In the same order, the values of AGAAAGAGGAAGTGACACTT are 8.52 z-score, 7.42 z-score and 4.16 z-score.
On the same counts, the results for GCCTTGGGGAAGTGCCAGTT are 2.92 z-score, 2.97 z-score and 1.33 z-score.
Take CAAAAAGGGATGTGGATGCT: the results for the binding signal in test [1], in test [2] and in test [3] were 1.81 z-score, 1.4 z-score and 1.1 z-score, respectively.
As for AAGAAAGGGAAGTCAGACCA, the figures for the binding signal in test [1], in test [2] and in test [3] were 4.06 z-score, 4.31 z-score and 1.65 z-score, respectively.
On the same counts, the results for AACAACAGGAAGTGCCTTTT are 4.57 z-score, 4.91 z-score and 5.02 z-score.
On the same counts, the results for TGAGAGAGGAAGTAACTTAA are 5.44 z-score, 5.34 z-score and 2.95 z-score.
In the same order, the values of ACAATAAGGAAGTGACAGTG are 4.84 z-score, 5.01 z-score and 2.27 z-score.
AAAAAGAGGAACTGGCTAGA: the binding signal in test [1] amounted to 7.31 z-score; in test [2] it was 7.1 z-score; in test [3] it was 2.76 z-score.

Source of the values: article PMC6451091.
